Measurements reported in the supplement of paper PMC4466236.
Over roughly 33,000 sequences, “E-score (dimensionless, -0.5 to 0.5)” has its median near -0.058; the highest 2% begin near 0.35. Some of the results follow.

The sequences below were run on MvaT (assay: PBM 8-mer E-score (mean of HK and ME arrays) (E-score (dimensionless, -0.5 to 0.5)); higher = stronger relative binding preference; most listed sequences are background and not binding sites).
Method in brief: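 Full-length P. aeruginosa MvaT carrying an N-terminal glutathione S-transferase tag was tested by protein binding microarray following a previously described protocol. Two universal double-stranded 60-mer arrays, ME and HK, were used, each with a constant 25-mer primer region and a variable 35-mer region covering all 8-mers. The rank-based E-score is the mean of the two arrays, parsed with a custom script. Its range runs from -0.5 to 0.5 for each 8-mer.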

Row | Sequence | PBM 8-mer E-score
1 | AAACCTTG | -0.0721
2 | TCCATCAA | -0.032
3 | GGAGGTGA | -0.191
4 | CGTAGGAG | -0.193
5 | ACTGGTCC | -0.187
6 | CACGTCAG | -0.292
7 | ATAACTAA | 0.32
8 | ATGTTTAC | 0.175
9 | AAGTATCT | 0.238
10 | GCGCAGAA | -0.0614
11 | GATGCTTA | 0.0939
12 | AGTCAACC | -0.0374
13 | GGCTGCAC | -0.168
14 | GGCATTAA | 0.193
15 | ACATTCGA | 0.036
16 | ATAATAAT | 0.463
17 | AGCAGGAT | -0.103
18 | ACCCCCGC | -0.222
19 | CGCTCAAC | -0.0575
20 | GGGATATA | 0.218
21 | AGCCGGGC | -0.237
22 | GAACAGAC | 0.0503

Row | Sequence | PBM 8-mer E-score
23 | GTTGGGAA | -0.0473
24 | AATGGTGA | 0.0929
25 | GCCATAGA | -0.0619
26 | AGAAATAA | 0.37
27 | CGGCGAAA | -0.0328
28 | AATCTTAA | 0.182
29 | CGGGCTGA | -0.16
30 | AGACTTAA | 0.133
31 | ATCCGGAG | -0.11
32 | CGCCTGTA | -0.0294
33 | AATAAATG | 0.33
34 | AAACAATG | 0.201
35 | ACATGCAT | 0.163
36 | CCCACCGG | -0.227
37 | GTGGATGA | -0.19
38 | GTGGGCTA | -0.0982
39 | AGAAGTCG | -0.127
40 | CATGTCTA | -0.0723
41 | ATGCAAAC | 0.104
42 | ATTGACGA | -0.0515
43 | GTCAGAGA | -0.236
44 | TTATGGAA | 0.173

Row | Sequence | PBM 8-mer E-score
45 | CAGCCTGA | -0.00325
46 | CCCATAAA | 0.0641
47 | ACTTTTAC | 0.211
48 | GAGTCCCC | -0.251
49 | ATCCAATC | -0.0136
50 | ACTTAGAA | 0.296
51 | AGCACGGC | -0.297
52 | ACAGGAGT | -0.104
53 | TACGCTGA | -0.091
54 | CCATAGCG | -0.0585
55 | ATTGTCCG | 0.0479
56 | AATTGCCA | 0.199
57 | GGTACAAA | 0.0825
58 | CTCGATGA | -0.0603
59 | AACACCTC | 0.108
60 | CGCATCGA | -0.122
61 | AGCCAGCT | -0.335
62 | TATCACCA | -0.00303
63 | AATGCCGT | 0.0989
64 | AGGACGAA | -0.196
65 | CTCGCCCA | -0.184
66 | TAAAGCAA | 0.19

Row | Sequence | PBM 8-mer E-score
67 | CATTGCAA | 0.00715
68 | AGCCTTCA | -0.213
69 | CTAGTGAC | -0.253
70 | TGCAGCCA | -0.215
71 | CATGAGCC | -0.2
72 | AATCACTA | 0.0235
73 | ATTGGGGA | -0.0105
74 | CGCAGTAG | -0.207
75 | GAACCTAA | -0.00933
76 | GGAGGGAA | -0.288
77 | CGCCAAAC | 0.00559
78 | GGCGATCA | 0.0093
79 | AGATTGGA | 0.0296
80 | CCTATACC | -0.173
81 | CAGACAGG | -0.294
82 | AATACAAA | 0.357
83 | ACGCGGTG | -0.0906
84 | GAAGATGC | -0.101
85 | CCGATATC | 0.107
86 | AAGGGCTG | -0.287
